The campaign covered roughly 110,000 compounds. About 230 (0.21%) showed an effect of 50% or more. This is one part of the list.
What follows are compounds tested against DPAP1 (Plasmodium falciparum, UniProt Q8IIJ9) (assay: primary screen, percent inhibition; read by cleavage of a fluorogenic dipeptide substrate; higher = more effect of the substance).
Parameters: species or system P. falciparum D10 trophozoite lysates; single well
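Note: 30 min substrate incubation versus DMSO and 10 µM JCP410 controls.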

Chain of DPAP1 (Q8IIJ9 whole entry, looked up): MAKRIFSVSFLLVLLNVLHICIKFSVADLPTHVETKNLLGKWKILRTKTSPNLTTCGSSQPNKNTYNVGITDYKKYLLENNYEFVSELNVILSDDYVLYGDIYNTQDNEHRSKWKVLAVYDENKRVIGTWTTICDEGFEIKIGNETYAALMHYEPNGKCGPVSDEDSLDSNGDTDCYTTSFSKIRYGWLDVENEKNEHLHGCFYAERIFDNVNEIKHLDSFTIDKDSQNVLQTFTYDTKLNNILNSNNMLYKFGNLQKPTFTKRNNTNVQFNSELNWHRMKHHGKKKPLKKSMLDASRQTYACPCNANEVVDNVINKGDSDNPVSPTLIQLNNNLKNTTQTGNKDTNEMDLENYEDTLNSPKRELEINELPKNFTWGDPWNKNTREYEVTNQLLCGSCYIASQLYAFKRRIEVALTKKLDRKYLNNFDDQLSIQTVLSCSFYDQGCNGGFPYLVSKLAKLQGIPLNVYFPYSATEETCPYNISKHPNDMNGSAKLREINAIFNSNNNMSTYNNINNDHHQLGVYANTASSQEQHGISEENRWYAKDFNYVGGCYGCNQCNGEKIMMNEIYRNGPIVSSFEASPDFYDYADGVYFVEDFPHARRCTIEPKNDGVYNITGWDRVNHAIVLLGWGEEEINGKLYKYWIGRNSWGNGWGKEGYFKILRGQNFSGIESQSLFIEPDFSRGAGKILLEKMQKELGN

SMILES | % Inhibition @ 10 uM
Cc1ccc(C(=O)N/C(=C\c2cccc(Oc3ccccc3)c2)C(=O)NC2CCS(=O)(=O)C2)cc1 (centres unmarked) | -1.29%
COc1ccccc1C1C(C#N)=C(N)Oc2nc(O)nc(O)c21 (centres unmarked) | -6.75%
O=C(O)C1CC=CCC1C(=O)c1ccc(Br)cc1 (centres unmarked) | -0.949%
CCN(CC)c1ccc(NC(=O)CCC(=O)O)cc1 | 1.88%
Cc1nn(-c2ccccc2)c2c1C1(C(=O)Nc3ccc(Br)cc31)C(C#N)=C(N)O2 (centres unmarked) | 1.08%
N=C(Cc1cccc2ccccc12)NOC(=O)N1CCOCC1 | -1.47%
CC(C)C1C(C#N)=C(N)Oc2nc(SCc3ccccc3)nc(O)c21 (centres unmarked) | -2.14%
O=C(COc1ccc(S(=O)(=O)NC2CCCCC2)cc1)N1CCN(c2cccc(Cl)c2)CC1 | 1.88%
CCOC(=O)c1sc(NC(=O)CSc2nnnn2C2CCCCC2)nc1C | 4.46%
O=C(c1ccc(C(=O)N2CCN(Cc3ccccc3)CC2)cc1)N1CCN(Cc2ccccc2)CC1 | 1.39%
CC(C)(C)NC(=O)CC(c1ccccc1)c1cc(Br)ccc1O (centres unmarked) | -1.81%
C=Cc1ccc(Cn2c(C(=O)O)c(CNCc3ccc4c(c3)OCO4)c3ccc(C)cc32)cc1 | 0.00226%
Cc1cc(C)n(C(=O)CCN2C(=O)c3ccccc3C2=O)n1 | 9.09%
Cc1ccc(CC2CC(=O)N(Cc3ccco3)C2=O)cc1 (centres unmarked) | 0.674%
CCOc1ccc(NC(=O)c2ccccc2N)cc1 | -2.44%
COc1cccc(C2C3=C(O)CCCC3=NC(C)=C2C(=O)Nc2ccccc2C)c1 (centres unmarked) | 2.36%
O=C(Cn1nnc2sc(-c3ccccc3)cc2c1=O)NCCc1ccccc1 | -6.43%
CCCC1Cc2nc(N3CCCCC3)c(C#N)cc2CO1 (centres unmarked) | -0.403%
O=C(CN1CCOCC1)Nc1c(C(=O)c2ccc(F)cc2)oc2ccccc12 | -1.44%
Cc1ccccc1-c1nnc(CS(=O)(=O)c2ccccc2)o1 | 9.95%
C=CCN1C(=O)/C(=C\c2ccc(Cl)cc2Cl)C(C(=O)OC)=C1C | -5.11%
CC1=C(C(=O)OCc2ccccc2)C(c2ccsc2)C(C#N)=C(N)O1 (centres unmarked) | 1.41%
COc1ccc(C2C(C(=O)O)c3ccccc3C(=O)N2Cc2ccc(F)cc2)cc1 (centres unmarked) | 4.33%
Cc1cc(C)n2nc(SCC(=O)NCCC3=CCCCC3)nc2n1 | 2.79%
COc1ccc(C2C(C#N)=C(N)N(c3ccc(Br)cc3)C3=C2C(=O)CCC3)cc1 (centres unmarked) | -1.06%

SMILES | % Inhibition @ 10 uM
Cc1sc2nc3n(c(=O)c2c1C)CCCCC3 | -7.5%
O=C(CCCOc1ccc(Cl)cc1Cl)N1CCc2ccccc2C1 | 1.35%
CNC(=O)NC1C(NC(=O)NC)N(C)C(=O)N1C (centres unmarked) | -0.178%
Cc1nc(O)c(C#N)c(C)c1[N+](=O)[O-] | -2.55%
CCOc1ccccc1/C=C1/SC(=O)N(C(C)CC)C1=O (centres unmarked) | -2.46%
C=CCOc1ccc(CNCCO)cc1OC | -2.76%
Cc1nc(O)nc(O)c1NC(=O)CSc1nccc(-c2ccc(F)cc2)n1 | -1.31%
O=C1C(c2ccccc2)=C(c2ccccc2)C(=O)N1O | 3.25%
COc1ccc(OC)c(-c2cc(C(=O)NCCN3CCOCC3)no2)c1 | 0.0221%
COc1ccccc1/C=C1\N=C(c2ccc(Br)cc2)OC1=O | 3.47%
O=C1CC(N2CCN(/C=C/c3ccccc3)CC2)C(=O)N1c1ccccc1 (centres unmarked) | 4.65%
N#CC1=C(N)Oc2cc(O)ccc2C1c1ccccc1 (centres unmarked) | 1.7%
O=C(Nc1cccc(-c2nc3ncccc3o2)c1)c1cc2ccccc2o1 | -3.05%
CCOC(=O)C1=C(CC)N=C(CC)/C(=C(/O)OCC)C1C(=O)O (centres unmarked) | 0.989%
COc1cc(CN2CCN(c3cccc(C(F)(F)F)c3)CC2)cc2c1OCO2 | 4.03%
CC1CCc2oc3ccc(NS(=O)(=O)c4cccs4)cc3c2C1 (centres unmarked) | -4.49%
Cc1cc2oc(C(=O)N(Cc3ccc(C(C)C)cc3)C3CCS(=O)(=O)C3)cc(=O)c2cc1C (centres unmarked) | -1.47%
COc1ccc2nc(N3CCCC(C(=O)NCc4ccc5c(c4)OCO5)C3)sc2c1 (centres unmarked) | -4.65%
Cc1ccc2onc(CNC(=O)N3CCc4ccccc4C3)c2c1 | 4.8%
COc1cc(CNCCO)cc(Br)c1OCc1ccccc1 | 3.35%
C=CCNC(=O)C1=CC(c2ccc(C)cc2)=NS(=O)(=O)N1C | 3.92%
CSc1ccccc1-c1ccc(C(=O)N[C@@H](CC(C)C)C(=O)NCC#N)cn1 | -5.2%
Cc1nn2c(c1-c1ccccc1)NC(C(F)(F)F)(C(F)(F)F)NC2=O | 0.709%
Cc1ccc(S(=O)(=O)NCc2ccc(C(=O)NCCN(CC(C)C)CC(C)C)cc2)cc1 | 4.81%
COC(=O)c1cncn1C(C)c1ccccc1 (centres unmarked) | -3.41%

— PMC6919601, “Identification of Plasmodium dipeptidyl aminopeptidase allosteric inhibitors by high throughput screening” (PLoS ONE, 2019)
